Whole data set: some 110,000 compounds, median “z-score” near -0.1, cut for the highest 2% near 2. This is one part of the list.
Molecular target: Metabotropic glutamate receptor 8 (Rattus norvegicus) (UniProt P70579)
Assay: mGluR8 Gi/Go-coupled signaling modulation – cell-based, rat, thallium flux, HTS, primary screen (AID 488969)
Conditions: HEK293 rat mGluR8, GIRK (G protein-gated inwardly rectifying potassium channel) thallium flux, FluoZin2; at 10 µM; stronger effect = higher value; submaximal glutamate (EC20) added with thallium

Sequence of UniProt P70579 (P70579 whole entry, looked up): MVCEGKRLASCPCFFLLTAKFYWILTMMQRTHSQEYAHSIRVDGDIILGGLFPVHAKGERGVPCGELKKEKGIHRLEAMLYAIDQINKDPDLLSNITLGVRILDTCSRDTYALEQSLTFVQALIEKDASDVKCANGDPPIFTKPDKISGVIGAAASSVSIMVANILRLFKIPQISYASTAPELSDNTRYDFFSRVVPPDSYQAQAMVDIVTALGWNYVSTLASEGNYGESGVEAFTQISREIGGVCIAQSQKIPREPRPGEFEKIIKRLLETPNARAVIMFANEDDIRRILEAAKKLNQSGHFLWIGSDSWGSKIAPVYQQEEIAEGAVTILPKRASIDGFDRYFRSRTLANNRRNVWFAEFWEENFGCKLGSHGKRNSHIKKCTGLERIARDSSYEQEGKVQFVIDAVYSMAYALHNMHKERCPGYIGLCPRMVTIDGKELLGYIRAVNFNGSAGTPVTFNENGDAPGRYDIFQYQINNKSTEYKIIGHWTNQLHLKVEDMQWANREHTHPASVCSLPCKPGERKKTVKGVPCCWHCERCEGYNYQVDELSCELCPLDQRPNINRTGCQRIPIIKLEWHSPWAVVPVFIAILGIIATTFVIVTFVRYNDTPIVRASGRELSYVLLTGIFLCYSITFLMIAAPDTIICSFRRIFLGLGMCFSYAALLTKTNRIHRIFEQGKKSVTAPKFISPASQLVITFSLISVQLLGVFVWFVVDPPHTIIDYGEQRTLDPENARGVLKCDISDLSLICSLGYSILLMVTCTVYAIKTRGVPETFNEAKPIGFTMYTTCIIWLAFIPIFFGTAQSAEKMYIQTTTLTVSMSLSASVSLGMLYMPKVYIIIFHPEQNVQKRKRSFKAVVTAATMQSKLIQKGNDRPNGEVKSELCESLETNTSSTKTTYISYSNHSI

Compound	z-score
O=C(CN1C(=O)c2ccccc2S1(=O)=O)NCc1ccc2c(c1)OCO2	-0.00977
O=C1NC(=O)/C(=C/c2ccccc2Oc2ccc(Cl)cc2)S1	-0.292
O=C1NC(=O)c2cc(NC(=O)C3CCCO3)ccc21 (stereo unspecified)	-0.127
O=C(NCc1cccnc1)C1COc2ccccc2O1 (stereo unspecified)	0.496
COC(=O)CSc1nnc(-c2ccccc2OC)n1-c1ccc(C)cc1	-0.487
Cc1ccccc1-c1nc(CS(=O)CC(=O)NCCN2CCN(Cc3ccccc3)CC2)c(C)o1 (stereo unspecified)	0.361
CCn1c(NC)cc(=O)n(C)c1=O	-0.2
CCCCn1c(SCC(=O)N2CCC(C)CC2)nc2ccsc2c1=O	-1.86
Cc1ccc(C(=O)NNC(=O)c2cc3cc4ccccc4nc3s2)cc1	0.506
CCCC(=O)Nc1sc(C)c(-c2ccc(OC)cc2)c1C#N	0.0161
O=C(NNS(=O)(=O)c1ccc(Cl)cc1)c1ccc(S(=O)(=O)N2CCCCC2)cc1	-0.21
N#Cc1ncc(C(F)(F)F)cc1Sc1ccc(N)cc1	-0.135
O=C(Cn1cnc2c(cnn2-c2ccccc2)c1=O)NC1CCCC1	-0.51
CC(C)N(Cc1nc(-c2ccc(Cl)cc2)no1)C(=O)c1cccs1	-0.512
Cc1cc(NC(=O)c2cc3ncc(Br)cn3n2)no1	-0.255
Clc1ccccc1/C=N/c1cc(-c2ccccc2)nn1-c1ccccc1	0.273

Compound	z-score
O=C(NCc1ccc(Cl)c(Cl)c1)c1ccco1	0.43
O=C(CNC(=O)c1ccccc1F)NCCOc1cccc(Cl)c1Cl	-0.0129
COCCCN1C(=O)C(O)=C(C(C)=O)C1c1ccccn1 (stereo unspecified)	0.108
COc1ccc(Cl)cc1C(=O)Nn1c(C)nc2ccccc2c1=O	-0.165
CCN(CC)S(=O)(=O)c1cccc(C(=O)OCC(=O)N2CC(=O)Nc3ccccc32)c1	-0.314
COc1ccc(OC)c(NC(=O)C2CCCC2)c1	-0.342
Cc1cnn(-c2cc(N/N=C/c3ccccc3F)ncn2)c1	-0.102
COCC(C)n1c(C)cc(C(=O)CSc2nnc(Nc3ccccc3F)s2)c1C (stereo unspecified)	-0.418
N/C(=N\OC(=O)C1CCCCC1)c1cccc([N+](=O)[O-])c1	-0.396
Cc1ccc2c(c1)[C@@H]1CN(C)CC[C@@H]1N2S(=O)(=O)c1ccc(F)cc1	-0.232
CCOC(=O)c1c(N2C(=O)C=CC2=O)sc(C)c1C	0.0123
Cc1ccc(C2CC(=O)N(c3ccc(F)cc3)C3=C2C(=O)CCC3)cc1 (stereo unspecified)	0.0688
O=C1c2cccc3cccc(c23)C(=O)N1CCN1CCN(C(=S)Nc2ccc(Cl)cc2)CC1	0.217
CC(C)(C)c1cc(C(=O)N/N=C/c2ccc(O)cc2)n(-c2ccccc2)n1	-0.0407
CC(=O)NC1C(=O)N=C(SCc2ccccc2)NC1=O (stereo unspecified)	-0.559
